This note sets out measurements from article PMC12820563, “FoxP3 forms a head-to-head dimer in vivo and stabilizes its multimerization on adjacent microsatellites”.

The list shows a part of the results.

For the experiment, the target named is T1, MBP-FoxP1dN (Mus musculus, UniProt P58462 326-579).
T1 sequence: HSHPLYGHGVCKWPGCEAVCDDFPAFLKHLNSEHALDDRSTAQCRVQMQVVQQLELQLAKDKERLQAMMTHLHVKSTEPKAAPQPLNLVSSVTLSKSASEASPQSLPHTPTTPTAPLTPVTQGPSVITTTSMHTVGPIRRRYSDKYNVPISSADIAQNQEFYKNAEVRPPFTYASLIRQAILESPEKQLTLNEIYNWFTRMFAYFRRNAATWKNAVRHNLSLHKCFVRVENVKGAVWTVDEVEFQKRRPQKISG
Briefly: PD-seq (MBP pull-down with sequencing); 20 mM Tris-HCl pH 7.5, 100 mM NaCl, 1.5 mM MgCl2, 0.4 uM protein, 0.1 uM dsDNA library, 30 min, room temperature, amylose pull-down; high values mean tight binding. As to conditions: protein: recombinant; tags: His6-MBP; chain copies: 2; dsDNA, one strand shown. Put shortly:
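Protein and DNA were mixed at 0.4 µM and 0.1 µM and held for 30 min at room temperature in Tris pH 7.5 buffer with NaCl and MgCl2; the protein was a His6-MBP-tagged, N-terminally truncated mouse FoxP3 or FoxP1 fragment from E. coli, and the DNA a Klenow-filled double-stranded degenerate library. Amylose resin captured the complexes, which were washed three times. Binding is read as reads-per-million enrichment of pull-down versus input after Illumina sequencing, with replicates pooled.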
Take “GATGATTGTTCTCCCAGCTGATGAATTAATGCATTCGAGTAAACAAATTTTCCTAATCTTTCTGTTCAAGCGCCATCTAC”: the binding signal was 1.67 RPM ratio (pull-down/input).

With “GATGATTGTTCTCCCAGCTGATGAATTTTTAAGGTCGAGTAAACAAATTTTCCTAATCTTTCTGTTCAAGCGCCATCTAC”, the binding signal is 0.884 RPM ratio (pull-down/input). In the case of “GATGATTGTTCTCCCAGCTGATGAATTTTAGGGATCGAGTAAACAAATTTTCCTAATCTTTCTGTTCAAGCGCCATCTAC” it was 0.823 RPM ratio (pull-down/input); in that of “GATGATTGTTCTCCCAGCTGATGAATTTACCGATTCGAGTAAACAAATTTTCCTAATCTTTCTGTTCAAGCGCCATCTAC”, 1.31 RPM ratio (pull-down/input). On to “GATGATTGTTCTCCCAGCTGATGAATTTGTTCATTCGAGTAAACAAATTTTCCTAATCTTTCTGTTCAAGCGCCATCTAC”, for which the binding signal was 1.2 RPM ratio (pull-down/input). As for “GATGATTGTTCTCCCAGCTGATGAATTCGGTTCATCGAGTAAACAAATTTTCCTAATCTTTCTGTTCAAGCGCCATCTAC”, the binding signal is 0.902 RPM ratio (pull-down/input).

As to “GATGATTGTTCTCCCAGCTGATGAATTCCTTCTTTCGAGTAAACAAATTTTCCTAATCTTTCTGTTCAAGCGCCATCTAC”, the binding signal was 0.871 RPM ratio (pull-down/input). “GATGATTGTTCTCCCAGCTGATGAATTTCTCTGTTCGAGTAAACAAATTTTCCTAATCTTTCTGTTCAAGCGCCATCTAC”: the binding signal was 0.866 RPM ratio (pull-down/input). For “GATGATTGTTCTCCCAGCTGATGAATTCCTTAGATCGAGTAAACAAATTTTCCTAATCTTTCTGTTCAAGCGCCATCTAC” the value was 0.924 RPM ratio (pull-down/input); for “GATGATTGTTCTCCCAGCTGATGAATTCCAGACATCGAGTAAACAAATTTTCCTAATCTTTCTGTTCAAGCGCCATCTAC”, 0.854 RPM ratio (pull-down/input).

Turning to “GATGATTGTTCTCCCAGCTGATGAATTTGATTTATCGAGTAAACAAATTTTCCTAATCTTTCTGTTCAAGCGCCATCTAC”, the binding signal was 1.23 RPM ratio (pull-down/input).

Turning to “GATGATTGTTCTCCCAGCTGATGAATTCCGGCGTTCGAGTAAACAAATTTTCCTAATCTTTCTGTTCAAGCGCCATCTAC”, the binding signal was 0.845 RPM ratio (pull-down/input). As to “GATGATTGTTCTCCCAGCTGATGAATTGGGCCAGTCGAGTAAACAAATTTTCCTAATCTTTCTGTTCAAGCGCCATCTAC”, the binding signal is 0.751 RPM ratio (pull-down/input). On to “GATGATTGTTCTCCCAGCTGATGAATTTTACAACTCGAGTAAACAAATTTTCCTAATCTTTCTGTTCAAGCGCCATCTAC”, for which the binding signal is 0.897 RPM ratio (pull-down/input). As for “GATGATTGTTCTCCCAGCTGATGAATTGAGAATGTCGAGTAAACAAATTTTCCTAATCTTTCTGTTCAAGCGCCATCTAC”, the binding signal was 0.853 RPM ratio (pull-down/input). As to “GATGATTGTTCTCCCAGCTGATGAATTGTCGCAGTCGAGTAAACAAATTTTCCTAATCTTTCTGTTCAAGCGCCATCTAC”, the binding signal was 1.08 RPM ratio (pull-down/input).

Turning to “GATGATTGTTCTCCCAGCTGATGAATTGTACTATTCGAGTAAACAAATTTTCCTAATCTTTCTGTTCAAGCGCCATCTAC”, the binding signal was 1.03 RPM ratio (pull-down/input). In the case of “GATGATTGTTCTCCCAGCTGATGAATTCTCTATTTCGAGTAAACAAATTTTCCTAATCTTTCTGTTCAAGCGCCATCTAC” it was 0.982 RPM ratio (pull-down/input).

In the case of “GATGATTGTTCTCCCAGCTGATGAATTTCAAAAGTCGAGTAAACAAATTTTCCTAATCTTTCTGTTCAAGCGCCATCTAC”, the binding signal was 0.756 RPM ratio (pull-down/input). In the case of “GATGATTGTTCTCCCAGCTGATGAATTCTTGCAGTCGAGTAAACAAATTTTCCTAATCTTTCTGTTCAAGCGCCATCTAC” it was 0.865 RPM ratio (pull-down/input); in that of “GATGATTGTTCTCCCAGCTGATGAATTGTAGTCGTCGAGTAAACAAATTTTCCTAATCTTTCTGTTCAAGCGCCATCTAC”, 0.963 RPM ratio (pull-down/input). Turning to “GATGATTGTTCTCCCAGCTGATGAATTGATACTTTCGAGTAAACAAATTTTCCTAATCTTTCTGTTCAAGCGCCATCTAC”, the binding signal is 1.27 RPM ratio (pull-down/input). In the case of “GATGATTGTTCTCCCAGCTGATGAATTCGTAGGATCGAGTAAACAAATTTTCCTAATCTTTCTGTTCAAGCGCCATCTAC”, the binding signal was 0.944 RPM ratio (pull-down/input). Consider “GATGATTGTTCTCCCAGCTGATGAATTCGGAGAGTCGAGTAAACAAATTTTCCTAATCTTTCTGTTCAAGCGCCATCTAC”, for which the binding signal is 0.747 RPM ratio (pull-down/input).

As for “GATGATTGTTCTCCCAGCTGATGAATTCCCGCTTTCGAGTAAACAAATTTTCCTAATCTTTCTGTTCAAGCGCCATCTAC”, the binding signal was 0.937 RPM ratio (pull-down/input).

For the sequence “GATGATTGTTCTCCCAGCTGATGAATTTTCAGACTCGAGTAAACAAATTTTCCTAATCTTTCTGTTCAAGCGCCATCTAC”, the binding signal is 0.855 RPM ratio (pull-down/input). With “GATGATTGTTCTCCCAGCTGATGAATTCCTGAGGTCGAGTAAACAAATTTTCCTAATCTTTCTGTTCAAGCGCCATCTAC”, the binding signal was 0.755 RPM ratio (pull-down/input). In the case of “GATGATTGTTCTCCCAGCTGATGAATTGCTATATTCGAGTAAACAAATTTTCCTAATCTTTCTGTTCAAGCGCCATCTAC” it was 1.3 RPM ratio (pull-down/input); in that of “GATGATTGTTCTCCCAGCTGATGAATTCGCGATATCGAGTAAACAAATTTTCCTAATCTTTCTGTTCAAGCGCCATCTAC”, 0.926 RPM ratio (pull-down/input).

Turning to “GATGATTGTTCTCCCAGCTGATGAATTAAGTAGATCGAGTAAACAAATTTTCCTAATCTTTCTGTTCAAGCGCCATCTAC”, the binding signal was 0.866 RPM ratio (pull-down/input). For the sequence “GATGATTGTTCTCCCAGCTGATGAATTCAGTCGATCGAGTAAACAAATTTTCCTAATCTTTCTGTTCAAGCGCCATCTAC”, the binding signal was 0.79 RPM ratio (pull-down/input). In the case of “GATGATTGTTCTCCCAGCTGATGAATTTAAAGGCTCGAGTAAACAAATTTTCCTAATCTTTCTGTTCAAGCGCCATCTAC” it was 1.02 RPM ratio (pull-down/input). For “GATGATTGTTCTCCCAGCTGATGAATTGCACGGCTCGAGTAAACAAATTTTCCTAATCTTTCTGTTCAAGCGCCATCTAC” the value was 1.01 RPM ratio (pull-down/input); for “GATGATTGTTCTCCCAGCTGATGAATTTGATATGTCGAGTAAACAAATTTTCCTAATCTTTCTGTTCAAGCGCCATCTAC”, 1 RPM ratio (pull-down/input).

As for “GATGATTGTTCTCCCAGCTGATGAATTCTTTACCTCGAGTAAACAAATTTTCCTAATCTTTCTGTTCAAGCGCCATCTAC”, the binding signal is 0.909 RPM ratio (pull-down/input). In the case of “GATGATTGTTCTCCCAGCTGATGAATTGAGTTTTTCGAGTAAACAAATTTTCCTAATCTTTCTGTTCAAGCGCCATCTAC”, the binding signal was 0.981 RPM ratio (pull-down/input). In the case of “GATGATTGTTCTCCCAGCTGATGAATTGCCTTGATCGAGTAAACAAATTTTCCTAATCTTTCTGTTCAAGCGCCATCTAC” it was 0.985 RPM ratio (pull-down/input).

As for “GATGATTGTTCTCCCAGCTGATGAATTGGCACTGTCGAGTAAACAAATTTTCCTAATCTTTCTGTTCAAGCGCCATCTAC”, the binding signal is 0.856 RPM ratio (pull-down/input).

As for “GATGATTGTTCTCCCAGCTGATGAATTTTATCACTCGAGTAAACAAATTTTCCTAATCTTTCTGTTCAAGCGCCATCTAC”, the binding signal was 0.979 RPM ratio (pull-down/input).

“GATGATTGTTCTCCCAGCTGATGAATTCTTGTACTCGAGTAAACAAATTTTCCTAATCTTTCTGTTCAAGCGCCATCTAC”: the binding signal was 0.981 RPM ratio (pull-down/input).
